# Data published in the supplement of paper PMC12645437, “Orthogonal IMiD-Degron Pairs Induce Selective Protein Degradation in Cells” (ACS Chemical Biology, 2025).
# Some of the results follow.
# Target: no compound (DMSO)
# Assay: log2 fold change of degron read counts, EGFP-low vs EGFP+ sorted cells; higher = lower degron-EGFP level without compound (poor expression or instability)
# Settings: compound: DMSO control; 18 h
# 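Further: jurkat cells carrying a lentiviral library of mutant zinc finger degrons fused to EGFP plus mCherry, mCherry+ cells FACS sorted, degron abundance counted by next-generation sequencing.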
row,Sequence,log2 fold change of degron read counts
1,FFCNQCGRNFTQKGNLLRHIKL,0.295
2,LCCPICGFHCTQKGNLLRHIKL,0.744
3,FQCPVCGAGFTQKGNLLRHIKL,-0.117
4,FVCPVCGAPFTQKGNLLRHIKL,0.0267
5,FICPVCGACFTQKGNLLRHIKL,-0.103
6,FECDQCGATFTQKGNLLRHIKL,-2.61
7,FMCPICGRWFTQKGNLLRHIKL,0.836
8,FVCNVCGALFTQKGNLLRHIKL,-0.514
9,FSCPICGRVFTQKGNLLRHIKL,0.176
10,FKCEICGREFTQKGNLLRHIKL,-2.54
11,FQCPICGHNFTQKGNLLRHIKL,-0.885
12,LKCEICGFACTQKGNLLRHIKL,-0.203
13,FCCNICGAWFTQKGNLLRHIKL,0.334
14,FSCNVCGAHFTQKGNLLRHIKL,-0.994
15,FLCDICGAVFTQKGNLLRHIKL,-0.593
16,FCCPQCGASFTQKGNLLRHIKL,-2.03
17,FLCEICGANFTQKGNLLRHIKL,-1.09
18,LGCEICGFNCTQKGNLLRHIKL,0.307
19,FDCPQCGAVFTQKGNLLRHIKL,-1.51
20,LQCPICGFECTQKGNLLRHIKL,-0.423
21,FCCNVCGANFTQKGNLLRHIKL,-0.718
22,FACNQCGAWFTQKGNLLRHIKL,0.527
23,FMCDVCGAPFTQKGNLLRHIKL,-0.813
24,FWCEICGAFFTQKGNLLRHIKL,0.962
25,FLCPQCGALFTQKGNLLRHIKL,0.204

row,Sequence,log2 fold change of degron read counts
1,FICEQCGAQFTQKGNLLRHIKL,-1.8
2,FKCPICGRYFTQKGNLLRHIKL,-0.281
3,FKCEICGARFTQKGNLLRHIKL,-0.117
4,FLCEICGREFTQKGNLLRHIKL,-0.825
5,FECEICGRGFTQKGNLLRHIKL,-2.16
6,FSCEICGHIFTQKGNLLRHIKL,-1.41
7,FRCNQCGRTFTQKGNLLRHIKL,-0.156
8,FYCNQCGHKFTQKGNLLRHIKL,0.372
9,FECDQCGAPFTQKGNLLRHIKL,-2.27
10,FSCPQCGATFTQKGNLLRHIKL,-1.02
11,FVCDVCGASFTQKGNLLRHIKL,-1.92
12,FHCEICGASFTQKGNLLRHIKL,-2.72
13,FDCNVCGANFTQKGNLLRHIKL,-1.44
14,FLCDVCGAPFTQKGNLLRHIKL,-0.934
15,FACDICGAYFTQKGNLLRHIKL,-0.553
16,FWCDICGACFTQKGNLLRHIKL,-0.0705
17,FRCEICGHFFTQKGNLLRHIKL,-0.484
18,FMCPVCGAPFTQKGNLLRHIKL,0.492
19,FNCEICGHNFTQKGNLLRHIKL,-1.44
20,FQCEVCGASFTQKGNLLRHIKL,-1.5
21,FFCNQCGHCFTQKGNLLRHIKL,0.378
22,FRCDICGAVFTQKGNLLRHIKL,-0.123
23,FKCDVCGAYFTQKGNLLRHIKL,-0.82
24,FSCEICGATFTQKGNLLRHIKL,-0.991
25,FKCNQCGRKFTQKGNLLRHIKL,-2.33
